Laboratory results from PubChem BioAssay (NCI).
Where “and” joins values, the source holds several entries; their conditions need not be identical. Identical values can stand only once.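 Cells were grown in 96-well plates and exposed to each compound for 48 hours at five concentrations; endpoints were interpolated linearly between bracketing concentrations, or set to the highest concentration if not reached. GI50 = concentration required for 50% inhibition of growth. Definition used: TGI = concentration required for complete inhibition of growth.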

What follows are compounds tested on NCI-H322M lung (assay: NCI anticancer screen, dose series, 48 h).
`CC(=O)OC1C(O[C@H]2CC[C@]34O[C@]35CC[C@]3(C)C(C6(C)CC[C@@H](C(C)(C)O)O6)[C@@H](O)CC3(C)[C@@H]5CC(OC3OC(CO)C(O)C(O)C3O)C4C2(C)C)OCC(O)C1O` (stereo not given in full) was tested, and the TGI was greater than 100 µM.
Work on `C/C(O[Si](C(C)C)(C(C)C)C(C)C)=C(\C)C(=O)N(C)c1ccccc1Cl` yielded a TGI greater than 100 µM.
`O=C(NC1(C(=O)O)CCCC1)c1ccccc1` was tested, and the TGI was greater than 100 µM.
Work on `OC12c3ccccc3C1CCCCCC21OCCCO1` (stereo not given) yielded a TGI greater than 100 µM.
In the case of `CC1(C)C(=O)C(=Cc2ccco2)C1=O`, the TGI is reported as greater than 100 µM.
Work on `CC(C)(C)c1nc(-c2cccc(NS(=O)(=O)c3c(F)cccc3F)c2F)c(-c2ccnc(N)n2)s1` yielded a GI50 of 54.2 µM and a TGI greater than 100 µM.
Work on `O=C(O)Cn1ccc2ccccc21` yielded a GI50 greater than 100 µM and a TGI greater than 100 µM.
Compound `CC12CCC(CC1(Cl)Cl)C2` (stereo not given) has a TGI greater than 100 µM.
`COc1ccc2nc3cccc([N+](=O)[O-])c3c(NCCNCCN(C)C)c2c1` showed a GI50 of 0.23 µM and a TGI of 2.18 µM.
With `CCC[CH2][Sn]([CH2]CCC)([O]C(=O)c1cccc(F)c1F)[O]C(=O)c1cccc(F)c1F` the GI50 was 1.71 µM and the TGI was 3.14 µM.
`O=C1NC(=Nc2ccccc2Cl)N/C1=C\c1ccc(Cl)cc1Cl` gave a TGI greater than 100 µM.
`C/C(O)=C(\N=O)C(=O)NCc1ccccc1` was tested, and the TGI was greater than 100 µM.
`CC1=C(C#N)C(/C=C(\Cl)c2ccc(F)cc2)C(C#N)=C(C)N1` gave a GI50 greater than 100 µM and a TGI greater than 100 µM.
`COc1cccc2nc3c(C(=O)NCCN(C)C)cccc3nc12` was tested, and the TGI was 36.7 µM.
`CCOc1ccc(N=Cc2ccnc3ccccc23)cc1` was tested, and the TGI was greater than 100 µM.
`COC(=O)CC(=O)NCC1=CCC(=O)CC1` was tested, and the TGI was greater than 100 µM.
With `COc1cc(-c2cc3ncccc3c3[nH]c(=O)c4cccnc4c23)cc(OC)c1OC` the GI50 was 0.798 µM and the TGI was greater than 100 µM.
With `O=C1NC(=Nc2ccccc2)C(=Nc2ccccc2)N1c1ccccc1` the TGI was 35.4 µM.
For `CNCCCNc1c2ccccc2nc2cccc([N+](=O)[O-])c12`, the TGI was 0.0232 µM and 0.0285 µM.
For `CCCCCCCCCCOC(=O)c1cc[n+](C)cc1`, the TGI was 32.8 µM.
In the case of `O/N=C\C(=Nc1ccc(Cc2ccc(N=C(/C=N\O)NO)cc2)cc1)NO`, the TGI is reported as greater than 100 µM.
`O=C1Nc2ccccc2/C1=C/c1cn(CC(O)Cn2cc(/C=C3\C(=O)Nc4ccccc43)c3ccccc32)c2ccccc12` (stereo not given) gave a GI50 of 1.83 µM and a TGI of 5.61 µM.
`CCC(=O)Nc1ccc(NCC(=O)Nc2ccc(OC)cc2)cc1` gave a TGI of 49 µM.
`N#Cc1c(-c2ccccc2)cc(Nc2ccc(Cl)cc2)n2c1nc1ccccc12` gave a TGI of 5.93 µM.
`COc1ccc2c(c1)O/C(=C\c1cccc(OCC(=O)Nc3nc(C)c(C)s3)c1)C2=O` gave a GI50 greater than 100 µM and a TGI greater than 100 µM.
`NC(=S)N/N=C1/CN(c2ccc(Cl)c(Cl)c2)CC(=O)C1c1nc2ccccc2s1` (stereo not given) showed a TGI greater than 100 µM.
`COc1cc(Nc2ncnc(Nc3ccc4c(n3)NC(=O)C(C)(C)O4)n2)cc(OC)c1OC` showed a GI50 of 2.42 µM and a TGI greater than 100 µM.
Compound `CN(C)CCCCCNc1c2ccccc2nc2cccc([N+](=O)[O-])c12` has a TGI of 0.0142 µM.
With `CCOC(=O)C1(C(=O)OCC)C=C(c2ccccc2)N(C2OC(COC(C)=O)C(OC(C)=O)C(OC(C)=O)C2OC(C)=O)C1=S` (stereo not given) the TGI was greater than 100 µM.
Compound `Nc1ccc(-c2ccc3ncc4ccc(=O)n(-c5cccc(C(F)(F)F)c5)c4c3c2)cn1` has a GI50 of less than 0.01 µM and a TGI of 4.75 µM.
For `C[n+]1ccccc1/C1=c2\cc/c([nH]2)=C(\c2cccc[n+]2C)C2=N/C(=C(/c3cccc[n+]3C)C3C=CC(N3)/C(c3cccc[n+]3C)=C3/C=CC1=N3)C=C2`, the TGI was greater than 100 µM.
Compound `CCC(=O)C(C(=O)CC)c1c(OC(=O)c2ccccc2)ccc(O)c1C(=O)OC` has a TGI greater than 100 µM.
In the case of `O=C(O)c1ccc(Nc2nc3nn(Cc4ccccc4)cc3c(=O)s2)cc1`, the TGI is reported as greater than 100 µM.
`CCNC(=S)NNC(=O)CSc1nc2ccc(I)cc2c(=O)n1Cc1ccccc1` showed a TGI greater than 100 µM.
Compound `CC(=O)NC1=C(N)C(=O)c2ccccc2C1=O` has a TGI greater than 100 µM.
Compound `COc1ccc(C2C3=C(COC3=O)OC(C)(C)Oc3cc4c(cc32)OCO4)cc1OC` (stereo not given) has a TGI greater than 100 µM.
With `O=P1(Cc2ccccc2)c2ccccc2-c2ccccc21` the TGI was 75 µM.
For `C=C(C)C(=O)OC1C[C@H](COC(C)=O)C2CC=C(CO)C2C2OC(=O)C(=C)[C@H]12` (stereo not given in full), the TGI was greater than 100 µM.
`O=C([CH-]C(=O)c1ccccc1)c1ccccc1.O=C([CH-]C(=O)c1ccccc1)c1ccccc1.O=C([CH-]C(=O)c1ccccc1)c1ccccc1.[Cl-].[Zr+4]` was tested, and the GI50 was 33.5 µM and the TGI was greater than 100 µM.
In the case of `COc1ccc(-c2nc(N)c(C#N)c3c2CCOc2c-3ccc3ccccc23)cc1`, the GI50 is reported as 29.9 µM and the TGI is reported as greater than 100 µM.
`O=C(NCc1ccc2ccc3cccnc3c2n1)c1ccc[n+](Cc2ccccc2)c1` was tested, and the TGI was greater than 100 µM.
Work on `C#C[C@]1(O)CC[C@H]2[C@@H]3CCC4=C/C(=N/OC(=O)c5cccc6c(=O)c7ccccc7[nH]c56)CCC4[C@H]3CC[C@@]21CC` (stereo not given in full) yielded a TGI greater than 100 µM.
`COc1cc(C2c3cc4c(cc3[C@@H](N(C)c3ccc(N(C)C)cc3)C3COC(=O)C23)OCO4)cc(OC)c1O` (stereo not given in full) was tested, and the TGI was greater than 100 µM.
`COc1cccc(NC(=O)c2sc3nc4c(cc3c2N)C(O)CCC4)c1` (stereo not given) was tested, and the GI50 was 0.797 µM and the TGI was greater than 100 µM.
`Oc1c(O)c(Cl)c(Cl)c(Cl)c1Cl` was tested, and the GI50 was 3.52 µM and the TGI was 24.8 µM.
`C1CC2=C(C1)C1=S(S2)SC2=C1CCC2` was tested, and the TGI was greater than 100 µM.
Compound `CC(=O)NC1C(OCc2ccccc2)OC(CO)C(O)C1OCC(=O)N[C@@H](C)C(=O)N[C@H](CCC(=O)NCCNc1ccc([N+](=O)[O-])c2[nH]c3ccccc3c(=O)c12)C(N)=O` (stereo not given in full) has a TGI greater than 100 µM.
`Cc1cc2nnc(C(N)=O)c(N)c2cc1C` was tested, and the TGI was greater than 100 µM.
In the case of `CC(=O)O[C@H](C[C@H](C(C)C)N(C)C(=O)[C@@H](NC(=O)[C@H]1CCCCN1C)C(C)C)c1cccc(C(=O)N[C@@H](Cc2ccccc2)C[C@H](C)C(=O)O)n1`, the GI50 is reported as 0.0475 µM and the TGI is reported as greater than 25 µM.
`CN(C)c1ccc(/C=C(\NC(=O)c2ccccc2)C(=O)NC(Cc2c[nH]c3ccccc23)C(=O)O)cc1` (stereo not given) was tested, and the TGI was greater than 100 µM.
In the case of `COc1ccc(-c2n[nH]nc2-c2cc(OC)c3c(c2)OCO3)cc1`, the GI50 is reported as 0.0557 µM and the TGI is reported as greater than 100 µM.
`CCc1nn2ncccc2c1-c1ccnc(NC2CC2)n1` gave a GI50 greater than 25 µM and a TGI greater than 25 µM.
With `COc1ccc2c(c1)[n+](=O)c(C(=O)CC(=O)C(=O)Nc1cccc(C)c1C)c(C)n2[O-]` the TGI was greater than 100 µM.
Work on `O=c1[nH]c(=O)n([C@@H]2O[C@H](CO)[C@@H](O)[C@@H]2F)cc1I` yielded a TGI greater than 100 µM.
In the case of `CCCCCCCCCC(=O)NC(Cc1ccc(O)cc1)C(=O)NCCCNCCCCNCCCNC(=O)[C@@H](N)CCCN=C(N)N` (stereo not given in full), the TGI is reported as greater than 100 µM.
`C#CC(O)/C=C/C(O)CCCC(O)CC#CC(O)C#CCCCCC(O)/C=C/CCCC(O)/C=C/CCCCCCCCCCCCCC(O)C(O)C#CC(=O)O` (stereo not given) was tested, and the TGI was greater than 25 µM.
`COc1cc(NC(C)CCCNC(C)C)c2ncccc2c1OC` (stereo not given) showed a GI50 of 37.3 µM and a TGI greater than 100 µM.
For `COC(=O)CC(C(C(C)=O)C(=O)OCc1ccccc1)N1C(=O)OC(c2ccccc2)C1c1ccccc1` (stereo not given), the TGI was greater than 100 µM.
In the case of `C=CCN(CCN(CC=C)S(=O)(=O)c1ccc(C)cc1)S(=O)(=O)c1ccc(C)cc1`, the TGI is reported as greater than 100 µM.
For `C[n+]1cn(-c2nc3ccccc3nc2[N-]S(=O)(=O)c2ccccc2)c2ccccc21`, the TGI was greater than 100 µM.
`O=C(NC(=O)c1cn(CCN2CCN(C(=O)NCCCCCCNC(=O)N3CCN(CCn4cc(C(=O)NC(=O)OCc5ccccc5)c(=O)[nH]c4=O)CC3)CC2)c(=O)[nH]c1=O)OCc1ccccc1` was tested, and the TGI was greater than 100 µM.
For `NC(N)=N/N=C/c1c(-c2cc([N+](=O)[O-])c(Cl)cc2Cl)nc2n1CCS2`, the TGI was 37.5 µM.
Compound `CCOC(=O)C1=C(C(=O)OCC)C2(c3ccccc3)N(O1)c1ccccc1C2(C)C` (stereo not given) has a TGI greater than 100 µM.
`Cc1ccc(C2C(Cl)C(=O)N2NC(=O)c2ccc(N)cc2)cc1` (stereo not given) showed a TGI of 42 µM.
For `CC1=C(C(=O)Nc2ccccc2)C(c2cc(Cl)cc(Cl)c2)C(C(=O)Nc2ccccc2)=C(C)N1`, the TGI was 26.6 µM.
With `O=C(c1ccco1)N(C(=S)N1CCN(c2ccccn2)CC1)c1ccccc1` the TGI was greater than 100 µM.
`c1cc[c]([Sn]([O]c2cccc3cccnc23)([O]c2cccc3cccnc23)[c]2ccccc2)cc1` showed a GI50 of 1.58 µM and a TGI of 2.94 µM.
In the case of `CNC(=S)/C(C#N)=C(\N)N1CCCC1`, the TGI is reported as greater than 100 µM.
Work on `C[C@H]1O[C@@H](C(C)(C)C)OC(=O)[C@@H]1C(OC(=O)c1ccccc1)c1cccc2ccccc12` (stereo not given in full) yielded a TGI greater than 100 µM.
`O=C1/C(=C/c2ccccc2)CCCc2ccccc21` showed a TGI of 45.4 µM.
Compound `Cc1cc(N(CCC#N)CCC#N)ccc1/C(N=Nc1ccc([N+](=O)[O-])cc1)=N\NC(=O)c1ccccc1` has a TGI greater than 100 µM.
In the case of `CC[C@@H](O)C[C@H]1CCC[C@@]2(C[C@@H]3OC(=O)/C=C/[C@@](C)(O)[C@@H](O)[C@H](C)[C@@H](O)[C@H](OC4CCC(N(C)C)C(C)O4)[C@@H](O)[C@](C)(O)CCCCC/C=C/[C@@H]4CC(C)(C)O[C@@]4(O)C[C@H](O2)[C@H]3C)O1` (stereo not given in full), the TGI is reported as 23.6 µM.
In the case of `CCOC1CCN(C(=O)c2ccccc2)O1` (stereo not given), the TGI is reported as greater than 10 µM.
In the case of `CCOc1ccc(C(C)=O)cc1NC(=O)c1cccc(-c2nnn(CC)n2)c1`, the GI50 is reported as 15.7 µM and the TGI is reported as greater than 100 µM.
With `CCOC(=O)C#Cc1c(C(=O)OCC)nnn1[C@@H]1O[C@H](CO)[C@H]2OC3(CCCCC3)O[C@H]21` the GI50 was 16.4 µM and the TGI was 30.7 µM.
For `Nc1nc2c(ccc3ccccc32)s1`, the GI50 was greater than 100 µM and the TGI was greater than 100 µM.
Work on `CCn1c(CSc2nc(-c3ccccc3)c(-c3ccccc3)[nH]2)n[nH]c1=S` yielded a TGI greater than 100 µM.
Compound `CN(C)N=Nc1ccc2[nH]c(=O)[nH]c2c1` has a TGI greater than 100 µM.
`NCCNC(=O)CN(CC(=O)O)C1CCCCC1N(CC(=O)O)CC(=O)O` (stereo not given) gave a TGI greater than 100 µM.
`NCCOc1ncccc1/C=C1\c2ccccc2-c2ccc([N+](=O)[O-])cc21` showed a GI50 of 0.283 µM and a TGI of 1.12 µM.
With `COc1ccc(/C(Cl)=C(\C=O)c2ccc(Cl)cc2)cc1OC` the TGI was greater than 100 µM.
With `CC(=O)NC1(C)C(C)C2CC1C(C)C2(C)C` (stereo not given) the TGI was greater than 100 µM.
